Out of some 50,000 compounds screened, about 800 (1.6%) showed an effect of 50% or more. The list shows a part of the results.

This test concerns the target Bcl-2-like protein 10 (Homo sapiens) (UniProt Q9HD36). As to the kind of experiment: Phenotype converters, Bcl-B/TR3 peptide binding displacement, primary biochemical FP (AID 1240).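 Note: 0% = Bcl-B with tracer peptide and DMSO and 100% = tracer peptide lacking Bcl-B.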 Conditions: GST-Bcl-B / FITC-TR3 peptide fluorescence polarization; stronger effect = higher value; compound at 3.75 mg/L. A general note: Fluorescence polarisation rises when a labelled molecule tumbles more slowly, as on binding a larger partner.
Sequence of UniProt Q9HD36 (Q9HD36 whole entry, looked up): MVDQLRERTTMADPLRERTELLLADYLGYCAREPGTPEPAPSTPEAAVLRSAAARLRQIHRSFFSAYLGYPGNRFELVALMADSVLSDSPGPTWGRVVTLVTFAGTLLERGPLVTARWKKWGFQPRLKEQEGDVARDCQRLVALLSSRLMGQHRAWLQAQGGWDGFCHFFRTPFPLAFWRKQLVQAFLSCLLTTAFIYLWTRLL
Regarding `CN(CCN(C)/N=C/c1cc(Cl)ccc1O)/N=C/c1cc(Cl)ccc1O`, the displacement is -1.2%.

In the case of `CC(C)c1ccc(NC(=O)CCN2C(=O)c3ccccc3C2=O)cc1`, the displacement is -23.2%.

As to `O=C1NC(=O)/C(=C\c2cc(Br)ccc2OCc2ccc(F)cc2)S1`, the displacement is -5.3%.

In the case of `Cc1ccc(C(=O)O/N=C(\N)c2ccccn2)cc1`, the displacement was -3.5%.

In the case of `COc1cc(/C=N/Nc2nncc(=O)[nH]2)ccc1O`, the displacement is -2.8%.

Turning to `CCCOc1ccc(Cc2c(O)nc(N)[nH]c2=O)cc1C`, the displacement was found to be 5.2%.

`O=c1[nH]c2ccc(Br)cc2c(-c2ccc(Cl)cc2)c1N1CCOCC1`: the displacement amounted to 12%.

With `O=[N+]([O-])c1ccc(N2N=C(c3ccccc3)CC2c2ccccc2O)cc1` (centres undefined), the displacement was -4.9%.

As to `Nc1ccc(Oc2ccc(N)c(N)c2)cc1`, the displacement came to 2.7%.

`COc1ccc(OC)c(NC(=O)/C=C/c2ccc(Cl)cc2Cl)c1`: the displacement was 7.3%.

`COc1ccc2oc(=O)c(-c3ccc(I)cc3)cc2c1`: the displacement worked out at 1.2%.

As for `CCOc1ccc(C(=O)Nc2ccc(Cc3ccncc3)cc2)cc1Cl`, the displacement was -11.5%.

In the case of `CCOc1ccc(C(=O)Nc2ccc3oc(-c4ccccc4Cl)nc3c2)cc1`, the displacement amounted to 13.2%.

On to `O=C(CC(c1ccccc1)c1ccccc1)N1CCN(Cc2ccccc2)CC1`, for which the displacement turned out to be 18%.

In the case of `CC(=O)c1cccc(Nc2ncnc3ccc(C)cc23)c1`, the displacement came to 10.3%.

As for `Cc1ccc(NC(=O)C(C)Sc2ccc(Cl)cc2)cc1` (centres undefined), the displacement stood at 3%.

On to `O=[N+]([O-])c1cc(-c2nnc(-c3ccco3)o2)ccc1Cl`, for which the displacement is 2.1%.

As for `COc1ccc(S(=O)(=O)NCCc2ccccc2)cc1`, the displacement is 0.6%.

As to `Cc1cc(C)c(NS(=O)(=O)c2cccc([N+](=O)[O-])c2)c(C)c1`, the displacement was -9.2%.

In the case of `C(=C(\c1ccccc1)c1nc2ccccc2[nH]1)/c1ccccc1`, the displacement stood at 3%.

Consider `O=C(Cc1ccc([N+](=O)[O-])cc1)N/N=C/c1c2ccccc2cc2ccccc12`, for which the displacement came out at 2.7%.

`CCC(Oc1ccccc1)C(=O)Nc1cc(Cl)ccc1OC` (centres undefined): the displacement was -11.1%.

In the case of `Cc1nnc(N/N=C/c2ccccc2OCc2ccccc2)[nH]c1=O`, the displacement is -10%.

Take `O=C(c1ccc([N+](=O)[O-])cc1)N1CCSC1c1ccc2c3c(cccc13)CC2` (centres undefined): the displacement was determined as 12%.

Regarding `CC1(C)CC(=O)C2=C(C1)OC(c1ccccc1)=CC2c1ccccc1` (centres undefined), the displacement is 6.3%.

Consider `O=C(O)CN=C(NS(=O)(=O)c1ccc(Cl)cc1)c1ccccc1`, for which the displacement came to 1.1%.

In the case of `O=[N+]([O-])c1cccc(C2CC(c3ccccc3)=NN2c2ccccc2)c1` (centres undefined), the displacement was -0.2%.

For the compound `CCOc1ccc(N(Cc2ccc(C(=O)N3CCCC3)cc2)S(=O)(=O)c2ccc(C)cc2)cc1`, the displacement was -11.6%.

In the case of `O=C(COc1ccc2ccccc2c1)Nc1ccccc1C(=O)Nc1ccccc1`, the displacement amounted to 1.7%.

As for `CCc1ccccc1NC(=O)CN(c1ccccc1)S(=O)(=O)c1ccccc1[N+](=O)[O-]`, the displacement was -5%.

On to `COc1cc(OC)c(NS(=O)(=O)c2ccc(F)cc2)cc1Cl`, for which the displacement is -5.7%.

For `COc1cccc(-c2nc(-c3cccnc3)no2)c1`, the displacement stood at 1%.

As for `Cc1nn(-c2ccccc2)c(N2CCCCC2)c1/C=N/O`, the displacement came to 5.7%.

`CCn1c(SC)nc2sc3c(c2c1=O)CCCC3`: the displacement was -7.5%.

As to `CC(C)N(C(=O)C1CCCCC1C(=O)O)C(C)C` (centres undefined), the displacement was -3.7%.

`Cc1onc(-c2ccccc2)c1C(=O)Nc1ccc(Cl)cc1Cl`: the displacement was determined as 2.8%.

As to `Cc1ccc(N(CC(=O)Nc2cccc3ccccc23)S(=O)(=O)c2ccccc2)cc1`, the displacement was 8.7%.

With `O=C(/C=C/Nc1cc(Cl)cc(Cl)c1)c1ccccc1`, the displacement was -3.9%.

Regarding `O=c1[nH]cnc(O)c1C(c1ccc2c(c1)OCO2)c1c(O)nc[nH]c1=O`, the displacement was found to be 4.9%.

For the compound `Cc1ccc2c(c1)c1c(n2C)C(NC(N)=O)CCC1` (centres undefined), the displacement was found to be 1.1%.

Take `O=C(Nc1cccc(F)c1)c1cc2ccccc2oc1=O`: the displacement is 3%.

On to `CCOc1ccc(NC(=O)CN(c2ccc(C)cc2)S(=O)(=O)c2ccc(OCC)cc2)cc1`, for which the displacement came to 15%.

Turning to `COC(=O)CN(c1cc(C)ccc1OC)S(C)(=O)=O`, the displacement amounted to 4.4%.

For the compound `Cc1c(Cl)cccc1N1C(=O)C2C3c4ccccc4C(C)(c4ccccc43)C2C1=O` (centres undefined), the displacement was -1.8%.

Take `O=C(CC1Nc2ccccc2NC1=O)Nc1ccc(F)cc1` (centres undefined): the displacement came out at 3.4%.

For `O=C(Nc1ccccc1I)c1ccccc1[N+](=O)[O-]`, the displacement is 11.4%.

`O=C1c2ccccc2/C(=N/N=C/c2cccs2)C1C(=O)C(c1ccccc1)c1ccccc1` (centres undefined): the displacement was determined as 6.9%.

Turning to `O=C(NCc1ccco1)/C(=C/c1cccc([N+](=O)[O-])c1)NC(=O)c1cccs1`, the displacement is -7.2%.

Turning to `Cc1cc(=O)c2cc(Br)ccc2[nH]1`, the displacement came out at 8%.

On to `O=[N+]([O-])c1ccccc1C=NN1CCN(Cc2ccccc2)CC1`, for which the displacement is -5.2%.

As to `O=C(NC(c1ccccc1)c1ccccc1)c1ccccn1`, the displacement was -6.5%.

`CCCCn1nc(CC(=O)NCCN(CC)CC)c2ccccc2c1=O`: the displacement stood at 4.4%.

As to `CCn1c2ccccc2c2cc(/C=N/n3c(C)nnc3C)ccc21`, the displacement worked out at 10%.

`COc1ccc(/C(N)=N/OC(=O)c2ccc(C)cc2)cc1`: the displacement was -20.8%.

As to `CCc1ccccc1N(CC(=O)Nc1cccc(Br)c1)S(C)(=O)=O`, the displacement is -1.3%.

With `Cc1ccc(-n2c(-c3ccccc3)nc3c(cnn3-c3ccccc3)c2=O)cc1`, the displacement is -4.5%.

Turning to `O=C(NN1C(=O)/C(=C/c2cc3c(cc2[N+](=O)[O-])OCO3)SC1=S)c1ccccc1Cl`, the displacement stood at 5.9%.

`Clc1ccc(CN2CCN(/N=C\c3ccc(OCc4ccccc4)cc3)CC2)cc1`: the displacement is -9.5%.

As for `CCOc1ccccc1C1Nc2ccccc2NC2=C1C(=O)CC(c1ccc(OC)cc1)C2` (centres undefined), the displacement was -1.7%.

For the compound `COC(=O)C1=C(C)NC2=C(C(=O)c3ccccc32)C1c1ccc(-c2ccccc2[N+](=O)[O-])o1` (centres undefined), the displacement was 10.5%.

`OC(CNCC1(c2ccc3c(c2)OCCO3)CCCC1)COc1ccccc1` (centres undefined): the displacement was -7.8%.

Consider `CCOc1ccc(S(=O)(=O)N(CC(=O)Nc2ccc(C(C)=O)cc2)c2ccc(C)cc2)cc1`, for which the displacement is -0.2%.

As for `Cc1ccc(/C=N/N=C2/NC(=O)C(CC(=O)Nc3ccccc3C(F)(F)F)S2)o1` (centres undefined), the displacement amounted to 7.4%.

As to `CC(=O)CC(=O)NCc1ccccc1Cl`, the displacement was -5.7%.

For `COc1ccc(NC(=O)c2cccc([N+](=O)[O-])c2C)c(OC)c1`, the displacement was -3.8%.

As for `Cc1ccc(NC(=O)C(Cl)Cl)c(Br)c1`, the displacement was found to be 3.1%.

`O=C1c2cccc3c(N4CCCCC4)ccc(c23)C(=O)N1CCO`: the displacement came out at 66.1%.

Regarding `Cc1cc(C)n(-c2nc(N(c3ccccc3)c3ccccc3)nc(-n3nc(C)cc3C)n2)n1`, the displacement was 14.3%.

As for `Cc1ccc(C)c(NS(=O)(=O)c2ccc3c(c2)C(=O)c2cc(S(=O)(=O)Nc4cc(C)ccc4C)ccc2-3)c1`, the displacement worked out at 2.4%.

The record behind these values is PubChem BioAssay AID1240 (Sanford-Burnham Center for Chemical Genomics, 2008).
